# Experimental data published in the supplement of paper PMC11060735.
# “And” between values parts separate entries of the source, which are not always exact repeats. Identical values can stand only once. Counter-ions that a name gives are not always drawn. The whole screen tested about 1,800 compounds, of which about 50 (3%) showed activity. The list shows a part of the results.
# Test system: mouse p16Ink4a+/- lung fibroblasts (INKBRITE, bleomycin-injured)
# Experiment: percentage of GFP+ (p16Ink4a+) fibroblasts among all cells in well; higher = less depletion of p16Ink4a+ cells, active = 20 or less
# Settings: 1 µM; 3 days
# 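Also: fibroblasts sorted 14 days after bleomycin, GFP+ and GFP− mixed 1:1 in 384-well plates (GFP− as in-well control), imaged after Hoechst and NucView530 staining, reference wells lacked compound.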
row,SMILES,percentage of GFP+
1,Cc1ccc(S(=O)(=O)NC(=O)NN2CC3CCCC3C2)cc1 (stereo not drawn) [Gliclazide],inactive: 38%
2,COc1ccc(NS(=O)(=O)c2ccc(N)cc2)nn1 [Sulfamethoxypyridazine],inactive: 48.1%
3,CC1=C(C(=O)Nc2cc3c[nH]nc3cc2F)C(c2ccc(C(F)(F)F)cc2)CC(=O)N1 (stereo not drawn),inactive: 38.2%
4,Clc1ccc2nsnc2c1NC1=NCCN1 [Tizanidine],inactive: 36.5%
5,COc1cc2nc(N3CCCN(C)CC3)nc(NC3CCN(Cc4ccccc4)CC3)c2cc1OC,inactive: 50.9%
6,CN(C)CCc1c[nH]c2ccc(Cn3cncn3)cc12 [Rizatriptan],inactive: 46.7%
7,OC[C@H]1O[C@@H](Oc2ccc(O)cc2)[C@H](O)[C@@H](O)[C@@H]1O [Arbutin],inactive: 39.7%
8,O=C(O)c1cc2cccc([N+](=O)[O-])c2[nH]1,inactive: 46.7%
9,COc1cc2c(Nc3ccc(Br)cc3F)ncnc2cc1OCC1CCN(C)CC1 [Vandetanib],inactive: 50.9%
10,O=C1O[C@H]([C@@H](O)CO)C(O)C1O (stereo partly drawn) [Sodium ascorbate],inactive: 52.2%
11,CC(C)(C)C#Cc1cc(N(C(=O)[C@H]2CC[C@H](C)CC2)[C@H]2CC[C@@H](O)CC2)c(C(=O)O)s1 [Lomibuvir],inactive: 41.8%
12,CCOc1cc(CC(=O)N[C@@H](CC(C)C)c2ccccc2N2CCCCC2)ccc1C(=O)O [Repaglinide],inactive: 45.1%
13,O=C(O)c1cc(=O)[nH]c(=O)[nH]1 [Orotic Acid],inactive: 37.4%
14,COc1cc(CCC(C)=O)ccc1O [Vanillylacetone],inactive: 46.6%
15,N=C(N)Nc1ccc(C(=O)Oc2ccc3cc(C(=N)N)ccc3c2)cc1 [Nafamostat],inactive: 41.7%
16,CC1=CC(=O)NS(=O)(=O)O1 [Acesulfame Potassium],inactive: 42.7%
17,O=C(O)CCCc1ccccc1 [Gamma-Phenyl-Butyric Acid],inactive: 45%
18,CC(C)[C@H]1C(=O)N[C@@H](CCCN=C(N)N)C(=O)NCC(=O)N[C@@H](CC(=O)O)C(=O)N[C@H](Cc2ccccc2)C(=O)N1C [Cilengitide],inactive: 46.7%
19,Cc1cc(Nc2nc(N[C@@H](C)c3ccc(F)cc3)c(C#N)cc2F)n[nH]1,inactive: 28.1%
20,Cc1ccc(C(=O)N(CCCN)[C@@H](c2nc3cc(Cl)ccc3c(=O)n2Cc2ccccc2)C(C)C)cc1 [Ispinesib],inactive: 31.3%
21,Oc1ccc2ccccc2c1SSc1c(O)ccc2ccccc12,inactive: 48.4%
22,Cc1ccccc1CN1C2=NCCN2C(=O)C2=C1CCN(Cc1ccccc1)C2,inactive: 51.8%
23,CCOC(=O)[C@H](CCc1ccccc1)N[C@@H](C)C(=O)N1CCC[C@H]1C(=O)O [Enalapril],inactive: 46%
24,O=C(Oc1ccccc1C(=O)O)c1ccccc1O [Salsalate],inactive: 49%
25,Cc1ncc([N+](=O)[O-])n1CCO [Metronidazole],inactive: 36.8%

row,SMILES,percentage of GFP+
1,COc1cc(C(C)=O)ccc1O [Apocynin],inactive: 38%
2,C=C(c1ccc(C(=O)O)cc1)c1cc2c(cc1C)C(C)(C)CCC2(C)C [Bexarotene],inactive: 46%
3,COc1ccc(COc2ccc(Cc3cnc(N)nc3N)cc2OC)cc1,inactive: 33.4%
4,COc1ccc(NS(=O)(=O)c2sc3ccc(Cl)cc3c2C)cc1N1CCNCC1,inactive: 59.1%
5,C=C1/C(=C/C=C2\CCC[C@]3(C)[C@@H]([C@H](C)/C=C/[C@@H](C)C(C)C)CC[C@@H]23)C[C@@H](O)C[C@@H]1O [Doxercalciferol],inactive: 21.2%
6,CCn1c(N)c(C(=O)NC)c(=O)c2ccc(C#C[C@@](C)(O)COC)nc21,inactive: 41.5%
7,CCN1CCN(C(=O)N[C@@H](C(=O)N[C@@H]2C(=O)N3[C@@H]2SC(C)(C)[C@@H]3C(=O)O)c2ccccc2)C(=O)C1=O [Piperacillin],inactive: 50.6%
8,C[C@@H]1COCCN1c1cc(C2(S(C)(=O)=O)CC2)nc(-c2cccc3[nH]ccc23)n1,inactive: 30.4%
9,O=C(O)c1cc(=O)c2ccccc2o1 [Chromocarb],inactive: 50.4%
10,CN(C[C@@H]1COCCO1)S(=O)(=O)Nc1ccc2ccc3ncc(-c4cnn(C)c4)cc3c(=O)c2c1,inactive: 47.7%
11,"CCCc1nn(C)c2c(O)nc(-c3cc(S(=O)(=O)N4CCN(C)CC4)ccc3OCC)nc12 [Sildenafil, Sildenafil Citrate]",inactive: 52.3%
12,O=C(Nc1ccccc1)Nc1ccc(-c2ccc(C(=O)[C@@H]3CCC[C@H]3C(=O)O)cc2)cc1,inactive: 45.8%
13,Cc1cccc(C)c1NC(=O)C1CCCCN1C (stereo not drawn) [Mepivacaine],inactive: 44.4%
14,COc1ccc(-c2cc(=O)c3c(OC)c(OC)c(OC)c(OC)c3o2)cc1 [Tangeretin],inactive: 48.6%
15,CN(C)Cc1ccc(S(=O)(=O)n2ccc(/C=C/C(=O)NO)c2)cc1 [Resminostat],inactive: 37.1%
16,Cc1cccc(Nc2nc(-c3ccncc3)cs2)c1,inactive: 42.4%
17,O[C@@H](COc1cccc2ncccc12)CN1CCN([C@@H]2c3ccccc3[C@@H]3[C@H](c4ccccc42)C3(F)F)CC1 [Zosuquidar 3HCl],inactive: 50.4%
18,Cc1c(N)nc([C@H](CC(N)=O)NC[C@@H](N)C(N)=O)nc1C(=O)N[C@H](C(=O)N[C@@H](C)[C@H](O)[C@@H](C)C(=O)N[C@@H](C(=O)NCCc1nc(-c2nc(C(=O)NCCC[SH](C)C)cs2)cs1)[C@@H](C)O)C(O[C@H]1O[C@H](CO)[C@H](O)[C@@H](O)[C@H]1O[C@H]1O[C@H](CO)[C@@H](O)[C@H](OC(N)=O)[C@@H]1O)c1c[nH]cn1 (stereo partly drawn) [Bleomycin],inactive: 36.1%
19,NC(CO)(CO)CO,inactive: 52.3%
20,CCC(=O)N1CCN(c2ccc(-n3c(=O)ccc4cnc5ccc(-c6cnc7ccccc7c6)cc5c43)cc2C(F)(F)F)CC1 [Torin 1],inactive: 46%
21,CS(=O)(=O)c1ccc([C@@H](O)[C@@H](CO)NC(=O)C(Cl)Cl)cc1 [Thiamphenicol],inactive: 49.4%
22,Cn1cnc2c1c(=O)[nH]c(=O)n2C [Theobromine],inactive: 38.9%
23,CCN[C@H]1CN(CCCOC)S(=O)(=O)c2sc(S(N)(=O)=O)cc21 [Brinzolamide],inactive: 44.8%
24,O=C(O)CCCc1c[nH]c2ccccc12 [3-Indolebutyric Acid],inactive: 48.2%
25,O=C(Cc1ccc(-c2ccc(OCCN3CCOCC3)cc2)cn1)NCc1ccccc1,inactive: 30.9%

row,SMILES,percentage of GFP+
1,CC1CCN(CC[C@H]2CCCN2S(=O)(=O)c2cccc(O)c2)CC1,inactive: 56.6%
2,O=S(=O)(O)CCS [Mesna],inactive: 35.4%
3,O=C(O)/C=C/c1ccc(Cn2ccnc2)cc1 [Ozagrel HCl],inactive: 41.7% and inactive: 44.8%
4,Cc1ccc(NC(=O)c2ccc(CN3CCN(C)CC3)cc2)cc1Nc1nc(-c2cccnc2)cs1 [Masitinib],inactive: 30.8%
5,Cn1cc(-c2ccc3ncc(Cc4ccc5ncccc5c4)n3n2)cn1,inactive: 41.3%
6,O=C(O)CCCN1CCC(O[C@@H](c2ccc(Cl)cc2)c2ccccn2)CC1 [Bepotastine Besilate],inactive: 54.5%
7,Nc1nc(N)nc(-c2cc(Cl)ccc2Cl)n1 [Irsogladine Maleate],inactive: 37%
8,Cc1cccc(CC(=O)N2CCc3c2ccc(-c2cn(C)c4ncnc(N)c24)c3F)n1,inactive: 45%
9,Cc1noc(-c2ccc(CSCCC(=O)O)cc2)c1NC(=O)OC(C)c1ccccc1Cl (stereo not drawn),inactive: 37.1%
10,NC(=O)c1cccc(-c2cc(Nc3ccc(OC(F)(F)F)cc3)ncn2)c1,inactive: 46.4%
11,CCCCC[C@H](O)/C=C/[C@H]1[C@H](O)CC(=O)[C@@H]1CCCCCCC(=O)O [Alprostadil],inactive: 22.6%
12,CC(C)NCC(O)COc1ccc(COCCOC(C)C)cc1 (stereo not drawn) [Bisoprolol],inactive: 40.5%
13,O=C(c1ccc(F)cc1)N1CCC[C@H](c2nc(-c3ccc(F)cc3)no2)C1,inactive: 36.6%
14,N=C(N)N/N=C/c1c(Cl)cccc1Cl [Guanabenz],inactive: 49.3%
15,[O]=[Mg] [Magnesium oxide],inactive: 47.1%
16,Cc1c(OCC(F)(F)F)ccnc1C[S@@](=O)c1nc2ccccc2[nH]1 [Dexlansoprazole],inactive: 52%
17,C[C@@]12C[C@@]3(O)O[C@@H](O1)[C@]1(COC(=O)c4ccccc4)[C@H]3C[C@@]12O[C@@H]1O[C@H](CO)[C@@H](O)[C@H](O)[C@H]1O [Paeoniflorin],inactive: 43%
18,CC1COC2(CCN(c3nc(=O)c4cc(C(F)(F)F)cc([N+](=O)[O-])c4s3)CC2)O1 (racemic) [BTZ043 Racemate],inactive: 29.3%
19,CCC[C@@H]1C[C@@H](C(=O)N[C@@H]([C@H]2O[C@H](SC)[C@H](O)[C@@H](O)[C@@H]2O)[C@@H](C)O)N(C)C1 [Lincomycin HCl],inactive: 43.1%
20,"Nc1ncn([C@@H]2O[C@H](CO)[C@@H](O)[C@H]2O)c(=O)n1 [5-azacytidine, Azacitidine]",inactive: 37.9%
21,CC1(C)[C@H](C(=O)O)N2C(=O)C[C@H]2S1(=O)=O [Sulbactam],inactive: 45.5% and inactive: 41.4%
22,Cc1c(-c2ccccc2)oc2c(C(=O)OCCN3CCCCC3)cccc2c1=O [Flavoxate],inactive: 43%
23,Cn1cc(/C=C/C(=O)c2cccc(F)c2)cc1/C=C/C(=O)NO,inactive: 54%
